Data as given in PubChem BioAssay AID1508623 (National Center for Advancing Translational Sciences (NCATS), 2021).
Among all 48,000 compounds or so, about 450 (0.94%) were called active. Another 19% or so got no clear call; they are omitted. Calls follow the shape of the dose curve; as a rule, active = well fitted inhibition curve with a large enough effect; inconclusive = small, poorly fitted or top-dose-only effect; inactive = no such curve, though single readings can be large or run the other way. The list shows a part of the results.

Test: Primary qHTS for Identification of Small Molecule Inhibitors of Huntingtin Promoter Activity; also: nearly all actives have a fitted effect of over 50% in size
Conditions: HEK293 HTT promoter firefly luciferase reporter (activity 0% = vehicle and -100% = no light), 24 h; series mostly up to 57.5 µM; activity change, negative = inhibition: at the top concentration
How it was run: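 Firefly luciferase readout (Dual-Glo, 10 min RT) after 24 h, 37 °C compound exposure (final up to 57.5 uM) of HEK293 reporter cells cultured 24 h beforehand; PTC124 at 50 uM final as control inhibitor; activity scaled vehicle 0%, zero RLU -100%.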

SMILES | activity change, negative = inhibition
Cc1ccc(CCNC(=O)CN2C(=O)COc3ccc(S(=O)(=O)N4CCCCC4)cc32)cc1 | inactive: -18.2%
Cc1ccc(Nc2nnc(-c3ccc(C)c(S(=O)(=O)N4CCCCC4)c3)c3ccccc23)cc1 | inactive: 15.7%
CCOc1ccc2c(c1)[C@@H]1C=CC[C@@H]1[C@H](c1ccccc1Cl)N2 | inactive: -18.3%
COc1ccc(OC)c(NCc2cccn2-c2nnc(N3CCC(C)CC3)s2)c1 | inactive: -17.5%
CC(C)(C)OC(=O)N1CCC(c2c(C(=O)Nc3ccc4c(c3)OCCO4)cnn2-c2ccc(F)cc2)CC1 | inactive: -13.5%
Cc1ccc(CNC(C)c2ccccc2)s1 (stereo not drawn) | inactive: 4.65%
Cc1cccc(-c2nc3c(cnn3-c3ccccc3)c(=O)n2-c2cccc(Cl)c2)c1 | inactive: -36.2%
CCN(CC)S(=O)(=O)c1ccc2c(c1)c(=O)c(C(=O)N(C)Cc1ccccc1)cn2C | inactive: 5.77%
Cc1ccc(C)c(NC(=O)CCCN2C(=O)COc3ccc(C)cc32)c1 | inactive: -29.3%
Cc1cc(C)cc(NC(=O)CSc2nnc(COc3ccccc3Cl)o2)c1 | inactive: -8.44%
CC(C)(C)OC(=O)N1CCC(c2c(C(=O)Nc3cccc(C(F)(F)F)c3)cnn2-c2ccc(F)cc2F)CC1 | inactive: -22.7%
Cn1cnc2c(=O)oc3ccc(S(=O)(=O)N4CCN(c5ccccc5)CC4)cc3c21 | inactive: -0.831%
COc1ccc(C)cc1NC(=O)c1cc2c(s1)-c1ccccc1SC2 | inactive: -4.11%
CC1CCN(S(=O)(=O)c2ccc3ncn(CC(=O)Nc4ccccc4C(F)(F)F)c(=O)c3c2)CC1 | inactive: -29%
CCOC(=O)C1CCN(C(=O)CSc2n[nH]c(-c3ccccc3Cl)n2)CC1 | inactive: 1.64%
CN(C)c1ccc(C(CNC(=O)Cc2ccc(Cl)cc2)N2CCOCC2)cc1 (stereo not drawn) | inactive: -22.1%
CC(C)OC(=O)c1cc2c(OCC(O)CNC(C)(C)C)cccc2[nH]1 (stereo not drawn) | inactive: -0.443%
CCCn1c2ccccc2c2cnn(CC(=O)Nc3cccc(C(=O)OCC)c3)c(=O)c21 | inactive: -20.4%
CCOc1ccc(CNC(=O)CN2C(=O)CCn3nc(-c4cn(C)c5ccccc45)cc32)cc1OC | inactive: -0.741%
CCOc1ccc(NC(=O)CSc2cc(C)c3ccccc3n2)cc1 | inactive: -2.17%
COc1ccc(CCNC(=O)Cc2c(C)c3c(cc(C)c4c(C)c(C)oc43)oc2=O)cc1OC | inactive: 3.73%
Cc1ccc(S(=O)(=O)c2nc(-c3ccco3)oc2SC(C)C)cc1 | inactive: -27.4%
CN1CC(=O)N/C1=N/C(=O)Nc1cccc(Cl)c1 | inactive: 32.8%
CC(=O)Nc1nonc1-c1nnc(SCc2ccc(F)cc2Cl)n1C | inactive: -18.8%

SMILES | activity change, negative = inhibition
Cc1ccc(NC(=O)CN2Cc3ccccc3C2=O)c(C)c1 | inactive: -10.6%
CCOC(=O)c1cccc(NC(=O)CCS(=O)(=O)c2ccc(Br)s2)c1 | inactive: -15.2%
Cc1c(C)n(Cc2ccc(F)cc2)c2ccc(C(=O)N3CCN(c4ccc(Cl)cc4)CC3)cc12 | inactive: -12.6%
Cn1c(=O)c2c(nc(SCC(=O)Nc3ccc(F)cc3F)n2Cc2ccccc2)n(C)c1=O | inactive: -7.87%
CC1(C(=O)NC2CCCCC2)Cc2ccccc2C(=O)N1Cc1ccc(Cl)cc1 (stereo not drawn) | inactive: -20.5%
CCOC(=O)C1CCN(c2cc3c(cc2NC(=O)c2ccc(OC)c(OC)c2)n(C)c(=O)n3C)CC1 | inactive: -18.7%
CC1CCCCN1S(=O)(=O)c1ccc(F)c(C(=O)Nc2ccccc2C(F)(F)F)c1 (stereo not drawn) | inactive: -6.92%
COC(=O)c1ccccc1C(=O)c1ccc(OCCN2CCCCC2)cc1 | inactive: -1.4%
CCC(C)NC(=O)Cn1c(=O)n(CCCC(=O)NCc2ccc(C)cc2)c(=O)c2ccccc21 (stereo not drawn) | inactive: -2.95%
Cc1cn2c(=O)cc(COc3cc(C)c(Cl)c(C)c3)nc2s1 | inactive: -11.5%
CCOc1ccc(NC(=O)CN(c2ccccc2OCC)S(=O)(=O)c2ccccc2)cc1 | inactive: -20.6% [at 11.5 µM]
CCOc1cc2sc(N3CCC(C(=O)Nc4ccc(C(C)C)cc4)CC3)nc2cc1Br | inactive: 69.7%
Cc1cc(Cl)ccc1NS(=O)(=O)c1ccc2c(c1)CCN2S(C)(=O)=O | inactive: -23%
Cc1cc(=O)n(Cc2cccc(Br)c2)c2c1c(C)nn2-c1ccccc1 | inactive: 1.65%
Cc1cccc(CNC(=O)Cc2csc3ccccc23)c1 | inactive: 68.9%
COc1ccc(NC(=O)CC2C(=O)N(c3ccc(OC)cc3)C(=O)N2C2CCCCC2)cc1 (stereo not drawn) | inactive: 26.3%
Cc1ccc(Nc2cc(=O)[nH]c(=O)[nH]2)cc1C | inactive: -2.79%
COc1cccc(C(=O)N2CC(=O)Nc3ccc(C)cc3C2c2ccc(F)cc2)c1OC (stereo not drawn) | inactive: -29%
COc1ccc(OC)c(CNC(=O)CCc2c(C)nc3c(c2C)c(=O)n(C)c(=O)n3C)c1 | inactive: -7.42%
Cc1ccc2oc(=O)c(-c3nc4ccc(C)cc4[nH]3)cc2c1 | inactive: 23.2%
COc1ccc(Cl)cc1NC(=O)CSc1nnc(C)n2c1cc1sccc12 | inactive: 1.83%
CCCOc1ccc(CNC(=O)C(C)n2nc(C)n3c(cc4occc43)c2=O)cc1 (stereo not drawn) | inactive: -21.9%
Cc1oc2ncnc(N3CCCCC3)c2c1C(=O)Nc1cccc(Cl)c1C | inactive: -26.8%
Cn1c2c(c(=O)n(C)c1=O)C(c1cc(Br)ccc1F)CC(=O)N2 (stereo not drawn) | inactive: -0.0025%
